For test [1], the target named is T1, human SIRPalpha-Fc (R&D systems, UK) (human, UniProt P78324 31-373).
T1 construct: Bought fusion protein; also called divalent recombinant SIRPalpha; immobilized human SIRPalpha; not shown: Fc part of the bought SIRPalpha-Fc
Briefly: SPR (BiaCORE), human SIRPalpha-Fc captured via Protein A, bivalent kinetic fitting model, KD1.

Test [2] deals with T1, human SIRPalpha-Fc (R&D systems, UK). Briefly: SPR (BiaCORE), human SIRPalpha-Fc captured via Protein A, bivalent kinetic fitting model, kd1. For orientation: Surface plasmon resonance follows binding to a sensor surface in real time, without labels.
For another test, the target named is T2, human recombinant TNFα (human, UniProt P01375 partial chain).
T2 construct: also called TNFalpha; recombinant human TNFalpha
Briefly: DELFIA, TNFα immobilized on microtiter plate, detection with biotinylated anti-human IgG and Streptavidin-Europium.

Sequence of human recombinant TNFα (P01375 77-233 limits assumed): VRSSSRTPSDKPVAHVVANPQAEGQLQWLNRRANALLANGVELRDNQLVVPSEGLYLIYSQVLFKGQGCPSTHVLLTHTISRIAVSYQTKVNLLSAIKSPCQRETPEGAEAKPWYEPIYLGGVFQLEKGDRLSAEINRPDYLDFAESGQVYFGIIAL

B1: Example #9 CD47-Fc reference molecule (CD47 ECD fused to IgG1 N297A Fc) (Fc fusion)
chain: not shown
For orientation: koff means the rate constant with which the complex falls apart. Low readings indicate a long-lived complex, high ones a short-lived complex. With B1, in test [1], the Kd is 939 nM. For the same molecule, in test [2], the koff stood at 0.109 s⁻¹.

B2: Example #2 non-extended Fusobody (CD47 C15G-[G4S]2 linker-CH1-IgG1 LALA Fc / CD47 C15G-[G4S]2 linker-CL human kappa) (Fc fusion)
heavy: not shown
light: not shown
notes: Complex of two heterodimers; tetravalent for CD47 region; also called huCD47C15G-human IgG1 LALA-hkappa
As to B2, in the test with human recombinant TNFα, the binding result was “no binding (tested: 0.01-1 µg/mL)”.

(Values after US20140193408A1 (Novartis, published 2014).)
